PubChem BioAssay AID1346428 (National Center for Advancing Translational Sciences (NCATS), 2018)
About 1,200 (2.5%) of roughly 48,000 compounds were called active. Another 2% or so got no clear call; they are omitted.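 Rule for the calls: active = activation of at least 60% and not above a set upper limit (about 1 call in 100 departs from these limits); inconclusive = activation of 40% to 60%, or above that upper limit; inactive = activation under 40%.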 This is one part of the list.
Note: 0% is about no effect.

These molecules were tested against Probable G-protein coupled receptor 32 (Homo sapiens) (UniProt O75388) (assay: qHTS for Agonists of Human Resolvin D1 Receptor DRV1). Conditions: CHO-K1 GPR32 beta-arrestin PathHunter luminescence, 90 min; at 76.9 µM; stronger effect = higher value; zero percent set by DMSO-only wells.
Chain of UniProt O75388 (O75388 whole entry, looked up): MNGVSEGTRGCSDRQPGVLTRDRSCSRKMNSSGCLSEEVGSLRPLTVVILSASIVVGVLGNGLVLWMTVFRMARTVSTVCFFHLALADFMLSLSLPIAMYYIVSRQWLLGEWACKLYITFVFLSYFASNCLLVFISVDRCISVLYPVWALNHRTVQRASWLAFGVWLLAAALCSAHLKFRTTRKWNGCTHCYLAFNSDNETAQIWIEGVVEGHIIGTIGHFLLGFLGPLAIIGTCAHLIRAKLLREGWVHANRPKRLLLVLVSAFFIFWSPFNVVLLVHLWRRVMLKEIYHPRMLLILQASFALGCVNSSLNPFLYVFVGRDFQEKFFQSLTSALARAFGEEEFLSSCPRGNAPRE
Summary of the method: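 Step 1: seed CHO-K1 GPR32 beta-arrestin cells, 2,500/well, overnight at 37 °C. Step 2: add compounds, 90 min at 37 °C. Step 3: detection reagent, 1 h ambient, then luminescence.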
With `CC(=O)c1cccc(NC(=O)C2CCN(S(=O)(=O)c3ccc4c(c3)CCCN4C(C)=O)CC2)c1` the activation was inactive: 9.87%. In the case of `Cc1ccc(-c2nc(C)c(CCNC(=O)c3cccs3)s2)cc1`, the activation is reported as inactive: 17.8%. For `O=C(O)Cc1csc(-c2ccc(Cl)cc2)n1`, the activation was inactive: -9.97%. With `Cc1c(C(=O)OCc2ccccc2)[nH]c2c1C(=O)CC(c1ccc(C(C)(C)C)cc1)C2` (stereo unspecified) the activation was inactive: 15.8%. For `CC1CCN(c2nn3c(=O)c(C(=O)NCCCOC(C)C)cnc3s2)CC1`, the activation was inactive: -2.5%. For `Cc1ccc(CN2CCCn3nc(C(=O)NCCc4ccccc4C)cc3C2=O)cc1`, the activation was inactive: 16.9%. For `COc1cc(C(=O)Nc2ccccc2-c2nc(-c3ccccc3)no2)cc(OC)c1OC`, the activation was inactive: -1.62%. `CCc1cccc(NC(=O)c2cc3c(=O)n(Cc4ccccc4)ccc3nc2C)c1` was tested, and the activation was inactive: 7.48%. For `CCN(CC)c1nc2ccccc2nc1C(=O)Nc1ccc(C(C)=O)cc1`, the activation was inactive: -10.8%. In the case of `Cc1ccc(C)c(NC(=O)CN(C)S(=O)(=O)c2cccc3nsnc23)c1`, the activation is reported as inactive: 6%. For `Cc1cccc(N(C)c2nc3ccc(C(=O)c4ccccc4)cc3n3c(C)nnc23)c1`, the activation was inactive: -36.6%. In the case of `Cc1ccc(-n2nc(C(=O)Nc3ccc(F)cc3F)c3c4ccccc4n(C)c3c2=O)cc1`, the activation is reported as inactive: -5.13%. In the case of `Cc1ccc(C)c(NC(=O)Cn2c(=O)n(CCC(C)C)c(=O)c3cccnc32)c1`, the activation is reported as inactive: 6.43%. In the case of `CC(C)(C)C1CCc2c(sc(NC(=O)c3cc4ccccc4c(=O)o3)c2C(N)=O)C1` (stereo unspecified), the activation is reported as inactive: 23.8%. In the case of `CCCCCOc1ccc(/C=C/C(=O)Nc2sc(C)c(C)c2C(=O)OCC)cc1OC`, the activation is reported as inactive: -8.84%. With `COc1ccccc1NC(=O)Cn1cc(S(=O)(=O)Cc2ccccc2)c2ccccc21` the activation was inactive: 0.532%. `COc1ccc(CNc2ncnc3c2nc2n3CCCC2)cc1` was tested, and the activation was inactive: -13.4%. In the case of `COc1ccc(CCn2c3c(c(=O)[nH]c2=O)C(NC(=O)c2ccc(Cl)cc2)(C(F)(F)F)C(=O)N3)cc1OC` (stereo unspecified), the activation is reported as inactive: 17.8%. `COC(=O)CSc1ncc2c(n1)-c1ccccc1N(Cc1ccc(Cl)cc1)S2(=O)=O` was tested, and the activation was inactive: -1.89%. With `Cn1ncc2c(Nc3cc(C(F)(F)F)ccc3Cl)ncnc21` the activation was inactive: -10.2%. For `Cc1cccc(OCC(=O)Nc2ccccc2C(=O)OCc2cc(=O)n3ccsc3n2)c1`, the activation was inactive: -0.369%. With `COc1ccc(NC(=O)c2c(C)oc3ccc(O)c(CN4CCC(C)CC4)c23)cc1Cl` the activation was active: 82.6%. For `Cc1cccc(CNC(=O)Cn2c(-c3cccs3)cc3ccccc32)c1`, the activation was inactive: -12.1%. For `CCN(c1cccc(C)c1)S(=O)(=O)c1cc(Br)cc2c1N(C(C)=O)C(C)C2` (stereo unspecified), the activation was inactive: 17.4%. With `CC(NC(=O)c1ccc2c(c1)N(Cc1ccc(Cl)cc1)C(=O)CS2)c1ccccc1` (stereo unspecified) the activation was inactive: -6.55%. With `O=C(Cn1ccnc1[N+](=O)[O-])NCCO` the activation was inactive: -12.8%. For `CCCN(c1c(C)n(C)n(-c2ccccc2)c1=O)S(=O)(=O)c1ccc(C)cc1`, the activation was inactive: 9.42%. In the case of `COc1ccc2c(c1)c1c(c(=O)n(-c3ccccc3C)c(=O)n1Cc1cccc(C(F)(F)F)c1)n2C`, the activation is reported as inactive: -1.84%. In the case of `CC(C)OC(=O)c1ccc(Cn2nnc3sc4c(c3c2=O)CCCC4)cc1`, the activation is reported as inactive: 19.5%. With `CCc1ccc(-n2nnc(-c3nc(-c4cccs4)no3)c2N)cc1` the activation was inactive: 10.7%. For `CC1CCN(C(=O)CSc2n[nH]c(-c3ccc(F)cc3)n2)CC1`, the activation was inactive: -11.7%. For `CCc1nc2ccc(C(=O)N3CCN(c4cc(Cl)ccc4C)CC3)cc2nc1CC`, the activation was inactive: -22.2%. For `Cc1ccc(S(=O)(=O)NCC2CCC(C(=O)NCCc3ccccc3)CC2)cc1` (stereo unspecified), the activation was inactive: -5.75%. `CC(C)(C)C(=O)Nc1ccc(-c2nc3ccc(NC(=O)C(C)(C)C)cc3[nH]2)cc1` was tested, and the activation was inactive: -15.5%. With `CCC(=O)N1CCc2cc(CNS(=O)(=O)c3cc(OC)ccc3OC)ccc21` the activation was inactive: -9.06%. With `CCOC(=O)c1cnc2cc(C(F)(F)F)ccc2c1Nc1ccc(F)cc1F` the activation was inactive: 4.26%. `CC(=O)Nc1ccc(S(=O)(=O)NC2(C(F)(F)F)C(=O)Nc3c2c(=O)[nH]c(=O)n3-c2cccc(Cl)c2)cc1` (stereo unspecified) was tested, and the activation was inactive: -11.9%. With `Cc1cccc(-c2nc(CN3CCCC(C(=O)N4CCN(c5cc(Cl)ccc5C)CC4)C3)c(C)o2)c1` (stereo unspecified) the activation was inactive: 38.5%. In the case of `O=C(c1ccc(F)cc1)c1cn(Cc2ccccc2F)c2cc3c(cc2c1=O)OCCO3`, the activation is reported as inactive: -6.69%. With `Oc1ccc(Cl)cc1C1=Nc2ccccc2N=C(c2ccccc2)C1` the activation was inactive: 4.59%. In the case of `Cc1ccc(CSc2nc3cccnc3n2Cc2ccc(C(=O)NCc3ccco3)cc2)cc1`, the activation is reported as inactive: 25.5%. For `CCc1ccccc1NC(=O)CSc1nncn2c1cc1oc(C)cc12`, the activation was inactive: -12.8%. In the case of `COc1ccc(CN2C(=O)C(NC(=O)c3cccc(C)c3)(C(F)(F)F)N=C2c2ccccc2)cc1` (stereo unspecified), the activation is reported as inactive: -41.7%. In the case of `Cn1c2ccccc2c2cnn(CC(=O)NCCCN3CCCCC3)c(=O)c21`, the activation is reported as inactive: 1.97%. `CCOc1ccc(NC(=O)CSc2cn(CCNC(=O)c3ccccc3F)c3ccccc23)cc1` was tested, and the activation was inactive: 13.6%. For `Fc1ccc(C(c2nnc(-c3ccccc3)o2)N2CCN(c3cccc(Cl)c3)CC2)cc1` (stereo unspecified), the activation was inactive: -1.81%. `CC(=O)c1cccc(NC(=O)CSc2nnc3ccc(-c4ccc(Br)cc4)nn23)c1` was tested, and the activation was inactive: -1.84%. In the case of `O=C(NCCS(=O)(=O)N1CCN(c2ccc(F)cc2)CC1)C(c1ccccc1)c1ccccc1`, the activation is reported as inactive: -19.7%. `CCOC(=O)C(CC)n1nnc2sc(-c3ccccc3)cc2c1=O` (stereo unspecified) was tested, and the activation was inactive: 2.13%. With `CC(C)Oc1ccccc1-c1nc(SCC(=O)c2ccc(F)cc2)n[nH]1` the activation was inactive: 19.3%. For `Cc1ccc(Nc2c(-c3c[nH]c4ccccc34)nc3ccccn23)cc1`, the activation was inactive: 5.18%. With `Cc1ccc2oc(=O)c3cnn(CC(=O)N4CCN(c5ccc(F)cc5)CC4)c3c2c1` the activation was inactive: 0.135%. For `COc1ccc(OC)c(CCNC(=O)c2cc3c(s2)-c2c(C)cccc2OC3)c1`, the activation was inactive: 3.73%. With `Cc1ccc(-n2c(=O)c3sc4ccccc4c3n(CC(=O)NC3CCCC3)c2=O)cc1C` the activation was inactive: -1.63%. For `Cc1ccc(NC(=O)Cn2c(=O)n(Cc3ccccc3)c(=O)c3sc4ccccc4c32)cc1`, the activation was inactive: -7.83%. `Cc1ccc(CNC(=O)CSc2nc3c(sc4ccccc43)c(=O)n2CCCOC(C)C)cc1` was tested, and the activation was inactive: -6.57%. For `CCN(CC)S(=O)(=O)c1ccc(NC(=O)CN(c2ccccc2)S(=O)(=O)N(C)C)cc1`, the activation was inactive: 16.9%. With `O=C(CN1C(=O)C2(SCC(=O)N2c2cccc(Cl)c2)c2ccccc21)NCCc1ccccc1` (stereo unspecified) the activation was inactive: -8.04%. `CCOc1ccc(NC(=O)c2c(Nc3ccccc3C)sc(C(=O)c3ccccc3)c2N)cc1` was tested, and the activation was inactive: -86.3%. `Cc1c(Cl)cccc1-c1ccc(CNCCSc2nnnn2-c2ccccc2)o1` was tested, and the activation was inactive: -12.5%. In the case of `CCS(=O)(=O)c1ncc(N(Cc2ccccc2)Cc2ccco2)c(C(=O)Nc2cccc(Cl)c2C)n1`, the activation is reported as inactive: -13.8%. `COc1ccccc1C(=O)Nc1ccc2nc(SCC(=O)N(C)c3ccccc3)sc2c1` was tested, and the activation was inactive: 12%. For `NC[C@H]1O[C@@H](n2cnc3c(N)ncnc32)[C@H](O)[C@@H]1O`, the activation was inactive: 2.99%. With `CCOc1ccc(NC(=O)C(Cc2ccccc2)NS(=O)(=O)c2ccc3c(c2)oc(=O)n3C)cc1` (stereo unspecified) the activation was inactive: 0.0475%. `CCOc1ccc(CNC(=O)c2ccc3c(c2)c(C)c(C)n3Cc2ccccc2)cc1OC` was tested, and the activation was inactive: -16.4%. `COC(=O)c1ccc(Cl)cc1NC(=O)Nc1nnc(N2CCCC2)s1` was tested, and the activation was inactive: -12.6%. `COc1ccc(CCNC(=O)c2ccc3c(c2)N(Cc2ccccc2)C(=O)c2ccccc2S3=O)cc1OC` (stereo unspecified) was tested, and the activation was inactive: -5.41%. With `Cc1ccc(C)c(Cn2c3ccccc3c3cnn(CC(=O)NC(C)CCc4ccccc4)c(=O)c32)c1` (stereo unspecified) the activation was inactive: -5.71%. For `Cc1ccc(-n2ncc(C(=O)N3CCN(c4cc(Cl)ccc4C)CC3)c2C2CCN(C(=O)OC(C)(C)C)CC2)cc1`, the activation was inactive: -22.3%. In the case of `COc1ccc(NC(=O)c2c(NCc3cccs3)sc3c2CCC(C)C3)c(OC)c1` (stereo unspecified), the activation is reported as inactive: 16.7%. In the case of `CCCCCN(CCCOC)C(=O)C(CCC(=O)O)NC(=O)c1ccc(Cl)c(Cl)c1` (stereo unspecified), the activation is reported as inactive: -3.34%. For `O=C(CSc1nnc(-c2ccccc2Cl)o1)N1CCCc2ccccc21`, the activation was inactive: 4.05%. For `COc1ccc(S(=O)(=O)NCC(c2cccs2)S(=O)(=O)c2ccccc2)cc1OC` (stereo unspecified), the activation was inactive: -17%. With `COc1ccc(-c2nnc(SCC(=O)Nc3cccc(C(F)(F)F)c3)s2)cc1` the activation was inactive: 30.1%. For `CCOc1ccc(C(=O)c2cn(CC(=O)Nc3ccc(Cl)cc3)c3cc4c(cc3c2=O)OCO4)cc1`, the activation was inactive: 3.41%. In the case of `Cc1nn(C)c2c1c(C(F)(F)F)cc(=O)n2C(C)C(=O)Nc1ccccc1F` (stereo unspecified), the activation is reported as inactive: -0.566%. `Cc1c(C(=O)N(Cc2ccccc2F)C2CCS(=O)(=O)C2)oc2ccccc12` (stereo unspecified) was tested, and the activation was inactive: -12%. In the case of `CC(=O)N1CCc2cc(Br)cc(S(=O)(=O)CCC(=O)N3CCN(c4ccc(F)cc4)CC3)c21`, the activation is reported as inactive: 5.41%. `Cc1ccc(CN2CCC(CNC(=O)c3cnn(-c4ccccc4Cl)c3C3CCN(C(=O)OC(C)(C)C)CC3)CC2)cc1` was tested, and the activation was inactive: -19.2%. With `COc1cc(/C=C/c2nc(C#N)c(N3CCN(C)CC3)o2)cc(OC)c1OC` the activation was inactive: -16.4%. In the case of `CN(C(=O)c1ccc2c(c1)N(Cc1cccc(Cl)c1)C(=O)c1ccccc1S2(=O)=O)C1CCCCC1`, the activation is reported as inactive: -35%.
